Measurements from the supplement of paper PMC7826260.
This is one part of the list. One pool of 16,384 single-stranded DNAs met each Rep nickase domain in vitro for 1 h at 37 °C with 3 µM enzyme; only the middle of the 90-letter strands is printed. Values are log2 of uncut reads against the no-enzyme pool; the lower, the more was cut; hits are not called. Because reads are shares of a total, they shift together; values above 0 arise when much of the pool is cut.

Assays:
Experiment in all cases: uncleaved DNA left, log2 of reads against the no-enzyme library (log2 ratio); higher = less cleavage (more negative = more Rep cleavage of the k-mer); sequences stand for … in CTCGTCCG…ACCGGAGA
[1] = test system: T1, Rep nickase domain of Muscovy duck circovirus
T1 sequence (residues 1-111 of Rep, tag left off): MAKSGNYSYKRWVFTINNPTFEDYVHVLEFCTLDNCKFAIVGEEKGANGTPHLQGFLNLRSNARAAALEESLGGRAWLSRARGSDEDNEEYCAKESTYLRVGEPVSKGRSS
Protocol: (§1)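 A pool of 90-nt single-stranded DNAs with seven random bases just before the constant AC of the nick site (name = the seven bases) was cut by 3 µM recombinant His6-SUMO-tagged Rep nickase domain (300 nM DNA, 50 mM HEPES pH 8.0, 50 mM NaCl, 1 mM MnCl2, 1 h, 37 °C, three replicates). Uncut DNA was amplified and sequenced.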

[2] = test system: T2, Rep nickase domain of banana bunchy top virus
T2 sequence (residues 1-94 of Rep, tag left off): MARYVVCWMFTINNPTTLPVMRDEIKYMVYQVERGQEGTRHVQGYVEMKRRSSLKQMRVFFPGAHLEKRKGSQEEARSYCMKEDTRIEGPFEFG
Protocol: as §1

[3] = test system: T3, Rep nickase domain of cabbage leaf curl virus
T3 sequence (residues 1-116 of Rep, tag left off): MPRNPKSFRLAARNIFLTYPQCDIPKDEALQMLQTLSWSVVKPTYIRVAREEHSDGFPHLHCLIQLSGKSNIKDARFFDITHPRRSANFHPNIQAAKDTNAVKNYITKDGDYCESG
Protocol: as §1

[4] = test system: T4, Rep nickase domain of chickpea chlorotic dwarf virus
T4 sequence (residues 1-124 of Rep, tag left off): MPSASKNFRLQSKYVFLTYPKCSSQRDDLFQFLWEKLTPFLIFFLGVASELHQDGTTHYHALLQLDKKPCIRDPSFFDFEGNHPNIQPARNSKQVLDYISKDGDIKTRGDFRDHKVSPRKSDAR
Protocol: as §1

[5] = test system: T5, Rep nickase domain of faba bean necrotic yellows virus
T5 sequence (residues 1-98 of Rep, tag left off): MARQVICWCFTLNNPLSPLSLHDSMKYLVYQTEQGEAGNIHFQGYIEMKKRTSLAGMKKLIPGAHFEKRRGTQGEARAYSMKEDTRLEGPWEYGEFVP
Protocol: as §1

[6] = test system: T6, Rep nickase domain of maize striate mosaic virus
T6 sequence (residues 1-117 of Rep, tag left off): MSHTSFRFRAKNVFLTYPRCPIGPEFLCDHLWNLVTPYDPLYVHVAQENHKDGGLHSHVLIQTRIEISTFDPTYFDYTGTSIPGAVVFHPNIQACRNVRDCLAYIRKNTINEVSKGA
Protocol: as §1

[7] = test system: T7, Rep nickase domain of porcine circovirus 2
T7 sequence (residues 2-116 of Rep, tag left off): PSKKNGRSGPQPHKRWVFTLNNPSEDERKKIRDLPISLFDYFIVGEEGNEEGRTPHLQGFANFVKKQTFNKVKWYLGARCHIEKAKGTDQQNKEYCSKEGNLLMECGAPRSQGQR
Protocol: as §1

[8] = test system: T8, Rep nickase domain of tomato yellow leaf curl virus
T8 sequence (residues 1-136 of Rep, tag left off): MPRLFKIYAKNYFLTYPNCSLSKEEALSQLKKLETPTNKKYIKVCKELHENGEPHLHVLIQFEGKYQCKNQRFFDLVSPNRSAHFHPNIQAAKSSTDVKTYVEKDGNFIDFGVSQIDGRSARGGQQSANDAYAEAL
Protocol: as §1

[9] = test system: T9, Rep nickase domain of wheat dwarf virus
T9 sequence (residues 1-137 of Rep, tag left off): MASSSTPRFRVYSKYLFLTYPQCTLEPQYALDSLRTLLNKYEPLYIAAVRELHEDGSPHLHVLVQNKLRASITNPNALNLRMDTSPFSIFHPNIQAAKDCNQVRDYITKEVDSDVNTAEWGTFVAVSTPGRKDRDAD
Protocol: as §1

CTAAGGC
uncleaved DNA left (log2) [1]: -0.0298 | uncleaved DNA left (log2) [2]: -0.0425 | uncleaved DNA left (log2) [3]: -1.24 | uncleaved DNA left (log2) [4]: -1.87 | uncleaved DNA left (log2) [5]: -0.000445 | uncleaved DNA left (log2) [6]: -0.667 | uncleaved DNA left (log2) [7]: 0.156 | uncleaved DNA left (log2) [8]: 0.0217 | uncleaved DNA left (log2) [9]: -0.0414

AAAGGCG
uncleaved DNA left (log2) [1]: 0.0817 | uncleaved DNA left (log2) [2]: 0.0336 | uncleaved DNA left (log2) [3]: -0.573 | uncleaved DNA left (log2) [4]: 0.809 | uncleaved DNA left (log2) [5]: 0.089 | uncleaved DNA left (log2) [6]: -0.214 | uncleaved DNA left (log2) [7]: 0.185 | uncleaved DNA left (log2) [8]: 0.0892 | uncleaved DNA left (log2) [9]: -0.0962

CTCTGCA
uncleaved DNA left (log2) [1]: 0.0378 | uncleaved DNA left (log2) [2]: 0.0309 | uncleaved DNA left (log2) [3]: -0.44 | uncleaved DNA left (log2) [4]: -0.797 | uncleaved DNA left (log2) [5]: -0.0434 | uncleaved DNA left (log2) [6]: -1.1 | uncleaved DNA left (log2) [7]: -0.0316 | uncleaved DNA left (log2) [8]: 0.0556 | uncleaved DNA left (log2) [9]: 0.0305

GTTCCAG
uncleaved DNA left (log2) [1]: 0.048 | uncleaved DNA left (log2) [2]: 0.0487 | uncleaved DNA left (log2) [3]: 0.243 | uncleaved DNA left (log2) [4]: 0.556 | uncleaved DNA left (log2) [5]: -0.03 | uncleaved DNA left (log2) [6]: 0.584 | uncleaved DNA left (log2) [7]: 0.019 | uncleaved DNA left (log2) [8]: 0.129 | uncleaved DNA left (log2) [9]: 0.042

AGCAAAA
uncleaved DNA left (log2) [1]: -0.063 | uncleaved DNA left (log2) [2]: 0.134 | uncleaved DNA left (log2) [3]: 0.142 | uncleaved DNA left (log2) [4]: 0.456 | uncleaved DNA left (log2) [5]: 0.151 | uncleaved DNA left (log2) [6]: 0.339 | uncleaved DNA left (log2) [7]: -0.226 | uncleaved DNA left (log2) [8]: 0.014 | uncleaved DNA left (log2) [9]: 0.163

CTTCTTC
uncleaved DNA left (log2) [1]: -0.0763 | uncleaved DNA left (log2) [2]: -0.0793 | uncleaved DNA left (log2) [3]: -0.129 | uncleaved DNA left (log2) [4]: -0.636 | uncleaved DNA left (log2) [5]: -0.0231 | uncleaved DNA left (log2) [6]: -0.899 | uncleaved DNA left (log2) [7]: 0.00186 | uncleaved DNA left (log2) [8]: -0.207 | uncleaved DNA left (log2) [9]: 0.0172

TAGACAA
uncleaved DNA left (log2) [1]: 0.0848 | uncleaved DNA left (log2) [2]: 0.0874 | uncleaved DNA left (log2) [3]: 0.452 | uncleaved DNA left (log2) [4]: 0.87 | uncleaved DNA left (log2) [5]: 0.0647 | uncleaved DNA left (log2) [6]: 1.12 | uncleaved DNA left (log2) [7]: 0.0528 | uncleaved DNA left (log2) [8]: 0.178 | uncleaved DNA left (log2) [9]: 0.0654

AACTGGC
uncleaved DNA left (log2) [1]: -0.000451 | uncleaved DNA left (log2) [2]: 0.000327 | uncleaved DNA left (log2) [3]: -0.168 | uncleaved DNA left (log2) [4]: -0.117 | uncleaved DNA left (log2) [5]: 0.025 | uncleaved DNA left (log2) [6]: -0.681 | uncleaved DNA left (log2) [7]: 0.0738 | uncleaved DNA left (log2) [8]: 0.0187 | uncleaved DNA left (log2) [9]: 0.0468

CTGTCTG
uncleaved DNA left (log2) [1]: 0.0458 | uncleaved DNA left (log2) [2]: 0.0687 | uncleaved DNA left (log2) [3]: 0.0843 | uncleaved DNA left (log2) [4]: 0.548 | uncleaved DNA left (log2) [5]: -0.0164 | uncleaved DNA left (log2) [6]: 0.544 | uncleaved DNA left (log2) [7]: 0.0364 | uncleaved DNA left (log2) [8]: -0.1 | uncleaved DNA left (log2) [9]: 0.202

AGATACG
uncleaved DNA left (log2) [1]: -0.0321 | uncleaved DNA left (log2) [2]: -0.0186 | uncleaved DNA left (log2) [3]: -0.872 | uncleaved DNA left (log2) [4]: -0.302 | uncleaved DNA left (log2) [5]: 0.0588 | uncleaved DNA left (log2) [6]: -1.14 | uncleaved DNA left (log2) [7]: 0.248 | uncleaved DNA left (log2) [8]: -0.00377 | uncleaved DNA left (log2) [9]: 0.0132

GACAGGG
uncleaved DNA left (log2) [1]: 0.0892 | uncleaved DNA left (log2) [2]: 0.117 | uncleaved DNA left (log2) [3]: 0.0194 | uncleaved DNA left (log2) [4]: 0.298 | uncleaved DNA left (log2) [5]: 0.268 | uncleaved DNA left (log2) [6]: -0.451 | uncleaved DNA left (log2) [7]: 0.254 | uncleaved DNA left (log2) [8]: 0.176 | uncleaved DNA left (log2) [9]: 0.0471

CAAACAC
uncleaved DNA left (log2) [1]: 0.00662 | uncleaved DNA left (log2) [2]: -0.0469 | uncleaved DNA left (log2) [3]: -0.297 | uncleaved DNA left (log2) [4]: -0.859 | uncleaved DNA left (log2) [5]: 0.013 | uncleaved DNA left (log2) [6]: -0.85 | uncleaved DNA left (log2) [7]: 0.124 | uncleaved DNA left (log2) [8]: -0.128 | uncleaved DNA left (log2) [9]: 0.0371

GAGCTTC
uncleaved DNA left (log2) [1]: -0.096 | uncleaved DNA left (log2) [2]: -0.1 | uncleaved DNA left (log2) [3]: 0.0733 | uncleaved DNA left (log2) [4]: 0.402 | uncleaved DNA left (log2) [5]: 0.0028 | uncleaved DNA left (log2) [6]: 0.623 | uncleaved DNA left (log2) [7]: -0.405 | uncleaved DNA left (log2) [8]: -0.0549 | uncleaved DNA left (log2) [9]: -0.0305

TGGGTAT
uncleaved DNA left (log2) [1]: 0.0771 | uncleaved DNA left (log2) [2]: 0.0497 | uncleaved DNA left (log2) [3]: 0.583 | uncleaved DNA left (log2) [4]: 1.72 | uncleaved DNA left (log2) [5]: -0.027 | uncleaved DNA left (log2) [6]: 2.05 | uncleaved DNA left (log2) [7]: 0.241 | uncleaved DNA left (log2) [8]: 0.0239 | uncleaved DNA left (log2) [9]: 0.0471

TTCTGCC
uncleaved DNA left (log2) [1]: 0.0624 | uncleaved DNA left (log2) [2]: 0.0144 | uncleaved DNA left (log2) [3]: -0.12 | uncleaved DNA left (log2) [4]: -0.601 | uncleaved DNA left (log2) [5]: 0.0892 | uncleaved DNA left (log2) [6]: -0.939 | uncleaved DNA left (log2) [7]: 0.0733 | uncleaved DNA left (log2) [8]: 0.0188 | uncleaved DNA left (log2) [9]: -0.0627

CCTTTAT
uncleaved DNA left (log2) [1]: -0.268 | uncleaved DNA left (log2) [2]: -0.146 | uncleaved DNA left (log2) [3]: -0.0832 | uncleaved DNA left (log2) [4]: -1.07 | uncleaved DNA left (log2) [5]: -0.0696 | uncleaved DNA left (log2) [6]: -0.692 | uncleaved DNA left (log2) [7]: -1.15 | uncleaved DNA left (log2) [8]: 0.127 | uncleaved DNA left (log2) [9]: -0.0219
